From PubChem BioAssay AID624296 (National Center for Advancing Translational Sciences (NCATS), 2012)
In all, about 350,000 compounds went through this assay and about 9,900 (2.8%) were called active. Inconclusive results, whose numbers are uncertain, are shown with a selection of clear calls. The call rests on the fitted dose curve; in most records, active means well fitted activation curve with a large enough effect; inconclusive means small, poorly fitted or top-dose-only effect; inactive means no such curve, though single readings can be large or run the other way. No potency is given beside an inconclusive call; the fits are too rough.

Test: A quantitative high throughput screen for small molecules that induce DNA re-replication in MCF 10a normal breast cells. Further: nearly all actives have a fitted effect of over 50% in size. On activity, positive = re-replication: % of control where 0% means no effect.
Details: MCF 10A DNA re-replication, Hoechst nuclear intensity, 48 h; activity, positive = re-replication: at 46.1 µM (top of the series)
Potency means the concentration at half of the fitted maximal effect; tags describe the fitted curve by direction and shape.

Compound	activity, positive = re-replication	Potency
O=C(c1cn(Cc2ccccc2)nc1-c1ccccc1)N1CCN(c2ccccn2)CC1	inactive: 4.97%	
CCc1ccccc1NC(=O)/C(C#N)=C/c1ccc(Sc2ccccc2)o1		inconclusive [activator, single point]
COc1ccc(Cl)cc1Nc1nnc(-c2ccncc2)s1		inconclusive [activator, single point]
CC1CC(C)CN(C(=O)/C=C/c2ccc(S(=O)(=O)N3CCOCC3)cc2)C1 (stereo not drawn)		inconclusive [activator, partial curve, poor fit]
CCn1cc(C(=O)NCC(OC)OC)c(=O)c2cc(S(=O)(=O)N3CCCC3)ccc21	inactive: -0.0281%	
Cc1n[nH]c(C)c1S(=O)(=O)N1CCCCCC1		inconclusive [activator, single point]
Cc1cccc(OCCSCc2nc3ccccc3[nH]2)c1		inconclusive [activator, partial curve, poor fit]
O=S(=O)(c1ccc(Br)cc1)c1nc(-c2ccccc2)oc1NCc1cccnc1		inconclusive [activator, single point]
CC(C)(C)n1cnc2cc(NC(=O)c3ccc(Cl)cc3)ccc21		inconclusive [activator, single point]
CCOc1cc(/C=N\Nc2ccc([N+](=O)[O-])cc2)ccc1OCC(=O)Nc1ccc(C)c(C)c1		active: 16.4 µM
COc1ccc(Cl)c2c1[nH]c1nc(SCc3cccnc3)nnc12	inactive: -1.91%	
CCN(Cc1ccccc1)C(=O)C1CCN(c2ncnc3c2nc2n3CCCCC2)CC1	inactive: 15.3%	
COc1ccc(NC(=O)Cc2c(Cl)cccc2Cl)cn1	inactive: -2.74%	
CCOc1ccc(C(=O)NCC(=O)NCC(c2ccccc2OC)N2CCCC2)cc1 (stereo not drawn)	inactive: 0.878%	
Cc1cc(C(F)F)nn1CC(=O)NC1CCCC1		inconclusive [activator, single point]
Nc1[nH]c(=S)nc2nc(-c3ccccc3)c(-c3ccccc3)nc12		inconclusive [activator, single point]
CSc1nc(NCCN(C)C)c2sc3nc(-c4ccco4)c4c(c3c2n1)CCC4		inconclusive [activator, single point]
Clc1ccc(COn2nnc3ccccc32)c(Cl)c1		active: 23.1 µM
COC(=O)c1cc(=O)n(Cc2ccc(OC)c(OC)c2)c(=Nc2ccc(F)cc2)s1		inconclusive [activator, single point]
O=C(O)Cc1ccc(O)cc1	inactive: -3.25%	
CCCN1CC=C2C(C#N)=C(N)C(C#N)(C#N)C(c3cc(OC)ccc3OC)C2C1 (stereo not drawn)		inconclusive [activator, single point]
CC1(C)CC(=O)C2=C(C1)OC1=C(C(=O)CC(C)(C)C1)C2c1ccc(O)cc1O		inconclusive [activator, partial curve]
CCN(CC)c1ccc(/C=N/Nc2nc(C)cc(C)n2)cc1		inconclusive [activator, partial curve, poor fit]
O=c1c2c(-c3ccccc3)csc2nc2c3ccccc3c(NCCN3CCOCC3)nn12		active: 9.2 µM

Compound	activity, positive = re-replication	Potency
COc1c(C)cc(C(=O)C2CCCN(S(=O)(=O)N(C)C)C2)cc1C (stereo not drawn)		inconclusive [activator, single point]
NC(=O)c1cccc(NC(=O)Nc2ccc(Cl)cc2)c1		inconclusive [activator, partial curve, poor fit]
COc1cccc(/C=C/C(=O)Nc2ccc3nc4n(c(=O)c3c2)CCCC4)c1OC		inconclusive [activator, single point]
CCCCCC(=O)NC(=S)NNC(=O)CC	inactive: 1.72%	
O=C(Nc1ccccc1N1CCOCC1)c1ccccc1NS(=O)(=O)c1ccc(F)c(F)c1		inconclusive [activator, partial curve, poor fit]
O=S(=O)(c1ccc(Cl)nc1)N(Cc1ccccc1)Cc1ccccc1		inconclusive [activator, partial curve, poor fit]
O=C(Cn1c(NCCCCl)nc2ccccc21)c1ccccc1	inactive: -2.41%	
O=[N+]([O-])c1ccc(-n2cnc3ccccc32)c([N+](=O)[O-])c1		inconclusive [activator, single point]
CC(C)NC(=O)N1CC(c2ccccc2)C(c2ccc(Cl)cc2)=N1 (stereo not drawn)	inactive: -2.74%	
O=C(CNC(=O)c1ccccc1Br)N/N=C/c1ccccc1O		inconclusive [activator, partial curve]
COc1ccc(C(=O)N/C(=C/c2cccs2)c2nc3ccccc3[nH]2)cc1OC	inactive: -3.61%	
COc1ccccc1CN(C)C(C)C(=O)Nc1cccc(C(C)=O)c1 (stereo not drawn)	inactive: 9.16%	
CCCCN(CC)C(=O)/C=C/c1cccc([N+](=O)[O-])c1		inconclusive [activator, full curve, poor fit]
Fc1cccc2sc(Nc3nnc(-c4ccco4)o3)nc12		active: 7.31 µM
Cc1cc(C(=O)COC(=O)c2ccc(Cl)c(S(N)(=O)=O)c2)c(C)n1CC1CCCO1 (stereo not drawn)	inactive: 0.087%	
COC(=O)c1ccc(NS(=O)(=O)c2cccc3cccnc23)cc1	inactive: 7.41%	
CC(C)(C)CC(C)(C)c1ccc(O)c(CN2CCN(CCC#N)CC2)c1		active: 18.4 µM
COCC(C)NC(=O)CSc1ncnc2sc(-c3ccccc3)cc12 (stereo not drawn)		inconclusive [activator, partial curve, poor fit]
Cc1ccccc1CN1CCN(C(C)C(=O)NNC(=O)c2ccc(F)cc2)CC1 (stereo not drawn)	inactive: 0.585%	
O=C(Cn1c(=O)[nH]c2sc3c(c2c1=O)CCCC3)NCC1CCCO1 (stereo not drawn)	inactive: 21.6%	
CC(NC(=O)c1cc(COc2ccc3ncccc3c2)on1)c1ccc(F)cc1 (stereo not drawn)	inactive: 7.02%	
COc1cc2sc(NC(=O)c3ccco3)nc2cc1Cl	inactive: 1.03%	
COc1ccc2c(c1)cc1c(=O)n(CC(=O)NCCCN3CCOCC3)nc(C)n12		inconclusive [activator, partial curve, poor fit]
CC(OC(=O)C1CCN(S(=O)(=O)c2ccc(C(C)(C)C)cc2)CC1)C(=O)N1CCOCC1 (stereo not drawn)		inconclusive [activator, partial curve]
